According to the supplement of paper PMC4604168 (melanoma cell lines):
The list shows a part of the results. Single values are uncertain, as repeats are few or missing.

What was measured:
Assay in all cases: cell count relative to DMSO control; melanoma cells; higher = more viable cells
Conditions in all cases: library dose: standard library concentration; 72 h
SkMel28 = tested on: SkMel28
SkMel2 = tested on: SkMel2
SkMel30 = tested on: SkMel30
SkMel5 = tested on: SkMel5
UACC257 = tested on: UACC257
UACC62 = tested on: UACC62
WM115 = tested on: WM115
WM1716 = tested on: WM1716
WM3526 = tested on: WM3526
WM1745 = tested on: WM1745
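Also: cells treated in 1,536-well plates, then fixed and DAPI-stained, with nuclei counted from automated high-throughput microscope images.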

SMILES	cell count (SkMel28) [%]	cell count (SkMel2) [%]	cell count (SkMel30) [%]	cell count (SkMel5) [%]	cell count (UACC257) [%]	cell count (UACC62) [%]	cell count (WM115) [%]	cell count (WM1716) [%]	cell count (WM3526) [%]	cell count (WM1745) [%]
O=C(/C=C/c1cccnc1)NCCCCC1CCN(C(=O)c2ccccc2)CC1 + COc1ccc(-c2ccc3c(N4CCOCC4)nc(N4C[C@@H](C)O[C@@H](C)C4)nc3n2)cc1CO [KU0063794] (first compound 0.05 µM, partner dose 0.1 µM)	76.2	27.2	84.7	61.1	92.3	82.4	87.1	72.1	102	–
CC1(C)CCC(c2ccc(Cl)cc2)=C(CN2CCN(c3ccc(C(=O)NS(=O)(=O)c4ccc(N[C@H](CCN5CCOCC5)CSc5ccccc5)c(S(=O)(=O)C(F)(F)F)c4)cc3)CC2)C1 + O=c1cc(-c2cccc3c2Sc2ccccc2S3)oc(N2CCOCC2)c1 [KU55933] (first compound 2 µM, partner dose 5 µM)	63.5	61	79.3	67.8	33.3	74.6	80.5	52	77	–
Cc1ccc(Nc2nccc(N(C)c3ccc4c(C)n(C)nc4c3)n2)cc1S(N)(=O)=O [Pazopanib] + O=S(=O)(c1ccccc1)N(CC(F)(F)F)c1ccc(C(O)(C(F)(F)F)C(F)(F)F)cc1 [T0901317] (first compound 2 µM, partner dose 7 µM)	87.2	103	87.7	64.1	77.8	81.5	88.4	63.8	78.1	–
Cc1ccc(Nc2nccc(N(C)c3ccc4c(C)n(C)nc4c3)n2)cc1S(N)(=O)=O [Pazopanib] + Oc1cc(-c2nc(-c3ccccc3)[nH]c2-c2ccncc2)ccc1Cl [L779450] (first compound 2 µM, partner dose 1 µM)	44.2	24.4	87	55.1	94.6	43.9	60.8	68.1	57.2	–
Cc1ccc(Nc2nccc(N(C)c3ccc4c(C)n(C)nc4c3)n2)cc1S(N)(=O)=O [Pazopanib] + c1cc(-c2cnn3cc(-c4ccc(OCCN5CCCCC5)cc4)cnc23)ccn1 [Dorsomorphin] (first compound 2 µM, partner dose 2 µM)	67.1	90.2	67.5	50.4	76.6	41.8	57.6	69.7	75.4	–
Cc1ccc(Nc2nccc(N(C)c3ccc4c(C)n(C)nc4c3)n2)cc1S(N)(=O)=O [Pazopanib] + COc1ccc(COc2ccc(Cc3cnc(N)nc3N)cc2OC)cc1 [GW2580] (first compound 2 µM, partner dose 5 µM)	76.7	90.9	83.7	57.3	77.7	81.8	79.8	79.8	69.6	–
O=C(/C=C/c1cccnc1)NCCCCC1CCN(C(=O)c2ccccc2)CC1 + COc1ccc(COc2ccc(Cc3cnc(N)nc3N)cc2OC)cc1 [GW2580] (first compound 0.05 µM, partner dose 5 µM)	66.2	19.5	84.2	74.2	84.1	77.3	82.5	77.2	95.2	–
Cc1ccc(Nc2nccc(N(C)c3ccc4c(C)n(C)nc4c3)n2)cc1S(N)(=O)=O [Pazopanib] + O=C(O)C(=O)Nc1sc2c(c1C(=O)O)CCNC2 [TCS401] (first compound 2 µM, partner dose 8.33333 µM)	95.2	106	112	73.4	74.8	81.5	83.9	68.5	81.7	–
O=C(/C=C/c1cccnc1)NCCCCC1CCN(C(=O)c2ccccc2)CC1 + CCN(CC)CCCCNc1ncc2cc(-c3cc(OC)cc(OC)c3)c(NC(=O)NC(C)(C)C)nc2n1 [PD173074] (first compound 0.05 µM, partner dose 0.5 µM)	86.2	–	97.6	85	94.5	74.5	76.8	83.6	95.5	–
CC1(C)CCC(c2ccc(Cl)cc2)=C(CN2CCN(c3ccc(C(=O)NS(=O)(=O)c4ccc(N[C@H](CCN5CCOCC5)CSc5ccccc5)c(S(=O)(=O)C(F)(F)F)c4)cc3)CC2)C1 + Nc1nc(F)nc2c1ncn2[C@@H]1O[C@H](CO)[C@@H](O)[C@@H]1O [fludarabine] (first compound 2 µM, partner dose 1 µM)	–	0.3	9.44	31.1	23.7	68.5	72.8	54.5	11.1	4.38
O=C(/C=C/c1cccnc1)NCCCCC1CCN(C(=O)c2ccccc2)CC1 + COc1ccc2c(c1)CCC1C2CCC2(C)C(NCCCCCCN3C(=O)C=CC3=O)CCC12 [U73122] (first compound 0.05 µM, partner dose 2 µM)	107	24.1	89.6	66.1	93.1	47.7	82.7	63.9	94.6	–
Cc1ccc(Nc2nccc(N(C)c3ccc4c(C)n(C)nc4c3)n2)cc1S(N)(=O)=O [Pazopanib] + CC(C)CCN1c2nc(Nc3cc(F)c(O)c(F)c3)ncc2N(C)C(=O)C1C [BID1870] (first compound 2 µM, partner dose 1 µM)	49.5	–	60.4	55.8	77.7	55.3	81.3	77.8	61.2	–
Cc1ccc(Nc2nccc(N(C)c3ccc4c(C)n(C)nc4c3)n2)cc1S(N)(=O)=O [Pazopanib] + Cn1cc(/C=C2\C(=O)Nc3cccnc32)c2ccccc21 [GW441756] (first compound 2 µM, partner dose 2 µM)	78.1	104	87.2	81.6	78.7	48.9	117	94.4	85.1	–
CC1(C)CCC(c2ccc(Cl)cc2)=C(CN2CCN(c3ccc(C(=O)NS(=O)(=O)c4ccc(N[C@H](CCN5CCOCC5)CSc5ccccc5)c(S(=O)(=O)C(F)(F)F)c4)cc3)CC2)C1 + O=C(Nc1ccccc1)c1cc([N+](=O)[O-])ccc1Cl [GW9662] (first compound 2 µM, partner dose 10 µM)	51.9	73	44.6	67.8	29	75.3	73.2	41.7	70.2	–
O=C(/C=C/c1cccnc1)NCCCCC1CCN(C(=O)c2ccccc2)CC1 + O=C1NC(=O)/C(=C/c2ccc(-c3ccc(F)cc3O)o2)S1 [AS252424] (first compound 0.05 µM, partner dose 5 µM)	94.1	14.7	126	79	95.7	103	97.1	74.9	99.7	–
